# Data reported in the supplement of paper PMC8728848.
# The list shows a part of the results.
# What was measured:
# Test in all cases: glycan array binding signal (z-score within array); higher = stronger binding
# Details in all cases: glycan notation: IUPAC condensed, linker removed
# [1] = biological target: Fuc(a1-2)Gal
# Procedure, shortened: (§1)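 Glycan array data were curated from 3228 arrays in the Consortium for Functional Glycomics database and kept only where the protein sequence was available. Glycan names were converted to IUPAC-condensed notation, and columns mapping to the same glycan were averaged. The binding signal is a within-array Z-score, averaged across arrays of the same protein sequence at different concentrations or buffers and across linkers. Negative Z-scores can be read as non-binding.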
# [2] = biological target: Fuc(a1-2)Gal(b1-3)GalNAc
# Procedure, shortened: as §1
# [3] = biological target: Fuc(a1-2)Gal(b1-3)GalNAc(b1-3)Gal
# Procedure, shortened: as §1
# [4] = biological target: Fuc(a1-2)Gal(b1-3)GalNAc(b1-3)Gal(a1-4)Gal(b1-4)Glc
# Procedure, shortened: as §1
# [5] = biological target: Fuc(a1-2)Gal(b1-3)GalNAc(b1-4)[Neu5Ac(a2-3)]Gal(b1-4)Glc
# Procedure, shortened: as §1
# [6] = biological target: Fuc(a1-2)Gal(b1-3)GlcNAc
# Procedure, shortened: as §1
# [7] = biological target: Fuc(a1-2)Gal(b1-3)GlcNAc(b1-3)Gal(b1-4)Glc
# Procedure, shortened: as §1
# [8] = biological target: Fuc(a1-2)Gal(b1-3)[Fuc(a1-4)]GlcNAc
# Procedure, shortened: as §1
# [9] = biological target: Fuc(a1-2)Gal(b1-4)Glc
# Procedure, shortened: as §1
# [10] = biological target: Fuc(a1-2)Gal(b1-4)Glc6S
# Procedure, shortened: as §1
# [11] = biological target: Fuc(a1-2)Gal(b1-4)GlcNAc
# Procedure, shortened: as §1
# [12] = biological target: Fuc(a1-2)Gal(b1-4)GlcNAc(b1-3)Gal(b1-4)GlcNAc
# Procedure, shortened: as §1
# [13] = biological target: Fuc(a1-2)Gal(b1-4)GlcNAc(b1-3)Gal(b1-4)GlcNAc(b1-3)Gal(b1-4)GlcNAc
# Procedure, shortened: as §1
# [14] = biological target: Fuc(a1-2)Gal(b1-4)GlcNAc6S
# Procedure, shortened: as §1
# [15] = biological target: Fuc(a1-2)Gal(b1-4)[Fuc(a1-3)]GlcNAc
# Procedure, shortened: as §1
# [16] = biological target: Fuc(a1-2)Gal(b1-4)[Fuc(a1-3)]GlcNAc(b1-3)Gal(b1-4)[Fuc(a1-3)]GlcNAc
# Procedure, shortened: as §1
# [17] = biological target: Fuc(a1-2)Gal(b1-4)[Fuc(a1-3)]GlcNAc(b1-3)Gal(b1-4)[Fuc(a1-3)]GlcNAc(b1-3)Gal(b1-4)[Fuc(a1-3)]GlcNAc
# Procedure, shortened: as §1
# [18] = biological target: Fuc(a1-2)Gal6S(b1-4)Glc
# Procedure, shortened: as §1
# [19] = biological target: Fuc(a1-2)Gal6S(b1-4)Glc6S
# Procedure, shortened: as §1
# [20] = biological target: Fuc(a1-2)Gal6S(b1-4)GlcNAc
# Procedure, shortened: as §1
# [21] = biological target: Fuc(a1-2)[Gal(a1-3)]Gal
# Procedure, shortened: as §1
# [22] = biological target: Fuc(a1-2)[Gal(a1-3)]Gal(b1-3)GlcNAc
# Procedure, shortened: as §1
# [23] = biological target: Fuc(a1-2)[Gal(a1-3)]Gal(b1-4)Glc
# Procedure, shortened: as §1
# [24] = biological target: Fuc(a1-2)[Gal(a1-3)]Gal(b1-4)GlcNAc
# Procedure, shortened: as §1
# [25] = biological target: Fuc(a1-2)[Gal(a1-3)]Gal(b1-4)[Fuc(a1-3)]GlcNAc
# Procedure, shortened: as §1
# [26] = biological target: Fuc(a1-2)[Gal(a1-4)]Gal(b1-4)GlcNAc
# Procedure, shortened: as §1
# [27] = biological target: Fuc(a1-2)[GalNAc(a1-3)]Gal
# Procedure, shortened: as §1
# [28] = biological target: Fuc(a1-2)[GalNAc(a1-3)]Gal(b1-3)GlcNAc
# Procedure, shortened: as §1
# [29] = biological target: Fuc(a1-2)[GalNAc(a1-3)]Gal(b1-4)Glc
# Procedure, shortened: as §1
# [30] = biological target: Fuc(a1-2)[GalNAc(a1-3)]Gal(b1-4)GlcNAc
# Procedure, shortened: as §1
# [31] = biological target: Fuc(a1-2)[GalNAc(a1-3)]Gal(b1-4)[Fuc(a1-3)]GlcNAc
# Procedure, shortened: as §1
# [32] = biological target: Fuc(a1-2)[GalNAc(a1-4)]Gal(b1-4)GlcNAc
# Procedure, shortened: as §1
# [33] = biological target: Fuc(a1-2)[GalNAc(b1-3)]Gal
# Procedure, shortened: as §1
# [34] = biological target: Fuc(a1-3)GlcNAc
# Procedure, shortened: as §1
# [35] = biological target: Fuc(a1-3)[Gal(b1-4)]Glc6S
# Procedure, shortened: as §1
# [36] = biological target: Fuc(a1-3)[Gal(b1-4)]GlcNAc
# Procedure, shortened: as §1
# [37] = biological target: Fuc(a1-3)[Gal(b1-4)]GlcNAc(b1-2)Man(a1-3)[Fuc(a1-3)[Gal(b1-4)]GlcNAc(b1-2)Man(a1-6)]Man(b1-4)GlcNAc(b1-4)GlcNAc
# Procedure, shortened: as §1
# [38] = biological target: Fuc(a1-3)[Gal(b1-4)]GlcNAc(b1-2)Man(a1-6)[Gal(b1-4)GlcNAc(b1-2)Man(a1-3)]Man(b1-4)GlcNAc(b1-4)GlcNAc
# Procedure, shortened: as §1
# [39] = biological target: Fuc(a1-3)[Gal(b1-4)]GlcNAc(b1-3)Gal(b1-3)[Fuc(a1-4)]GlcNAc
# Procedure, shortened: as §1
# [40] = biological target: Fuc(a1-3)[Gal(b1-4)]GlcNAc(b1-4)Gal(b1-4)[Fuc(a1-3)]GlcNAc
# Procedure, shortened: as §1
# [41] = biological target: Fuc(a1-3)[Gal(b1-4)]GlcNAc(b1-4)Gal(b1-4)[Fuc(a1-3)]GlcNAc(b1-4)Gal(b1-4)[Fuc(a1-3)]GlcNAc
# Procedure, shortened: as §1
# [42] = biological target: Fuc(a1-3)[Gal(b1-4)]GlcNAc6S
# Procedure, shortened: as §1
# [43] = biological target: Fuc(a1-3)[Gal3S(b1-4)]Glc6S
# Procedure, shortened: as §1
# [44] = biological target: Fuc(a1-3)[Gal3S(b1-4)]GlcNAc
# Procedure, shortened: as §1
# [45] = biological target: Fuc(a1-3)[Gal3S(b1-4)]GlcNAc6S
# Procedure, shortened: as §1
# [46] = biological target: Fuc(a1-3)[GalNAc(b1-4)]GlcNAc
# Procedure, shortened: as §1
# [47] = biological target: Fuc(a1-4)GlcNAc
# Procedure, shortened: as §1
# [48] = biological target: Fuc(b1-3)GlcNAc
# Procedure, shortened: as §1
# [49] = biological target: Gal(a1-2)Gal
# Procedure, shortened: as §1
# [50] = biological target: Gal(a1-3)Gal
# Procedure, shortened: as §1
# [51] = biological target: Gal(a1-3)Gal(b1-3)GlcNAc
# Procedure, shortened: as §1
# [52] = biological target: Gal(a1-3)Gal(b1-4)Glc
# Procedure, shortened: as §1
# [53] = biological target: Gal(a1-3)Gal(b1-4)GlcNAc
# Procedure, shortened: as §1
# [54] = biological target: Gal(a1-3)Gal(b1-4)[Fuc(a1-3)]GlcNAc
# Procedure, shortened: as §1
# [55] = biological target: Gal(a1-3)GalNAc
# Procedure, shortened: as §1
# [56] = biological target: Gal(a1-3)[Gal(a1-4)]Gal(b1-4)GlcNAc
# Procedure, shortened: as §1
# [57] = biological target: Gal(a1-4)Gal(b1-4)Glc
# Procedure, shortened: as §1
# [58] = biological target: Gal(a1-4)Gal(b1-4)GlcNAc
# Procedure, shortened: as §1
# [59] = biological target: Gal(a1-4)GlcNAc
# Procedure, shortened: as §1
# [60] = biological target: Gal(a1-6)Glc
# Procedure, shortened: as §1
binder,measurement,setting,value
"LYVE-1 (Homo sapiens), Q9Y5Y7 (protein) MARCFSLVLLLTSIWTTRLLVQGSLRAEELSIQVSCRIMGITLVSKKANQQLNFTEAKEACRLLGLSLAGKDQVETALKASFETCSYGWVGDGFVVISRISPNPKCGKNGVGVLIWKVPVSRQFAAYCYNSSDTWTNSCIPEIITTKDPIFNTQTATQTTEFIVSDSTYSVASPYSTIPAPTTTPPAPASTSIPRRKKLICVTEVFMETSTMSTETEPFVENKAAFKNEAAGDPEVKFNWYVDGVEVHNAKPREEQYNSTYRVVSLVTVLHQDWLNGKEYKCKVSNKALPAPIEKTISKAKGQPREPQVYTLPPSRDELTKNQVSLTCLVKGFYPSDIAVEWESNGQPENNYKTTPPVLDSDGSFFLYSKLTVDKSRWQQGNVFSCSVMHEALHNHYTQRSLSLSPGK",glycan array binding signal (z-score),[1],-0.222
same,glycan array binding signal (z-score),[2],-0.468
same,glycan array binding signal (z-score),[3],0.63
same,glycan array binding signal (z-score),[4],-0.449
same,glycan array binding signal (z-score),[5],-0.605
same,glycan array binding signal (z-score),[6],-0.053
same,glycan array binding signal (z-score),[7],-0.024
same,glycan array binding signal (z-score),[8],-0.412
same,glycan array binding signal (z-score),[9],0.176
same,glycan array binding signal (z-score),[10],-0.042
same,glycan array binding signal (z-score),[11],-0.346
same,glycan array binding signal (z-score),[12],0.297
same,glycan array binding signal (z-score),[13],0.267
same,glycan array binding signal (z-score),[14],-0.475
same,glycan array binding signal (z-score),[15],0.451
same,glycan array binding signal (z-score),[16],0.235
same,glycan array binding signal (z-score),[17],0.299
same,glycan array binding signal (z-score),[18],-0.807
same,glycan array binding signal (z-score),[19],0.656
same,glycan array binding signal (z-score),[20],-0.046
same,glycan array binding signal (z-score),[21],0.242
same,glycan array binding signal (z-score),[22],-0.277
same,glycan array binding signal (z-score),[23],-1.05
same,glycan array binding signal (z-score),[24],-0.177
same,glycan array binding signal (z-score),[25],-0.426
same,glycan array binding signal (z-score),[26],-0.596
same,glycan array binding signal (z-score),[27],0.107
same,glycan array binding signal (z-score),[28],-0.138
same,glycan array binding signal (z-score),[29],-0.767
same,glycan array binding signal (z-score),[30],0.026
same,glycan array binding signal (z-score),[31],0.095
same,glycan array binding signal (z-score),[32],-0.022
same,glycan array binding signal (z-score),[33],-0.162
same,glycan array binding signal (z-score),[34],-0.378
same,glycan array binding signal (z-score),[35],0.049
same,glycan array binding signal (z-score),[36],-0.243
same,glycan array binding signal (z-score),[37],-0.11
same,glycan array binding signal (z-score),[38],0.1
same,glycan array binding signal (z-score),[39],-0.317
same,glycan array binding signal (z-score),[40],0.813
same,glycan array binding signal (z-score),[41],-0.652
same,glycan array binding signal (z-score),[42],-0.346
same,glycan array binding signal (z-score),[43],-0.066
same,glycan array binding signal (z-score),[44],-0.262
same,glycan array binding signal (z-score),[45],-0.586
same,glycan array binding signal (z-score),[46],-0.334
same,glycan array binding signal (z-score),[47],0.095
same,glycan array binding signal (z-score),[48],-0.121
same,glycan array binding signal (z-score),[49],-0.243
same,glycan array binding signal (z-score),[50],0.068
same,glycan array binding signal (z-score),[51],0.144
same,glycan array binding signal (z-score),[52],0.282
same,glycan array binding signal (z-score),[53],-0.02
same,glycan array binding signal (z-score),[54],0.523
same,glycan array binding signal (z-score),[55],-0.27
same,glycan array binding signal (z-score),[56],0.241
same,glycan array binding signal (z-score),[57],-0.09
same,glycan array binding signal (z-score),[58],-0.596
same,glycan array binding signal (z-score),[59],-0.269
same,glycan array binding signal (z-score),[60],-0.094
